The other results are listed elsewhere or left out. Further columns of the screen follow, without active or inactive calls.

This note sets out measurements from PubChem BioAssay AID1745853 (National Center for Advancing Translational Sciences (NCATS), 2022).

Common to all, as to assay: Primary Screen for Target Class Profiling of Small Molecule Inhibitors of Methyltransferases
Experiment [1] addresses Glycine N-methyltransferase (Homo sapiens) (UniProt Q14749). As to conditions: purified enzyme, MTase-Glo SAH luminescence; measured here: GNMT inhibition; at 40 µM; stronger effect = lower value. An outline of the steps: (§1)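 Each enzyme was assayed with SAM and its substrate. SAH formation detected by MTase-Glo luminescence; single-point 40 uM screen[…].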
Experiment [2] deals with Guanidinoacetate N-methyltransferase (Homo sapiens) (UniProt Q14353). The following applies: purified enzyme, MTase-Glo SAH luminescence; measured here: GAMT inhibition; at 40 µM; stronger effect = lower value. An outline of the steps: as §1
The target in experiment [3] is Histamine N-methyltransferase (Homo sapiens) (UniProt P50135). The following applies: purified enzyme, MTase-Glo SAH luminescence; measured here: HNMT inhibition; at 40 µM; stronger effect = lower value. The method in brief:
as §1

Experiment [4] addresses Nicotinamide N-methyltransferase (Homo sapiens) (UniProt P40261). The following applies: purified enzyme, MTase-Glo SAH luminescence; measured here: NNMT inhibition; at 40 µM; stronger effect = lower value. The method in brief: as §1
Experiment [5] deals with Phenylethanolamine N-methyltransferase (Homo sapiens) (UniProt P11086). The following applies: purified enzyme, MTase-Glo SAH luminescence; measured here: PNMT inhibition; at 40 µM; stronger effect = lower value. An outline of the steps:
as §1
% is scaled to controls: 0 for no effect and ±100 for the full control effect.

Regarding `COc1ccc(C(=O)N2CCCC2)c(OC2CCN(C(=O)C3C=CCN3)CC2)c1` (stereo not drawn), the activity change, negative = inhibition was -3.06% in experiment [1]; -5.29% in experiment [2]; -1.35% in experiment [3]; -13.1% in experiment [4]; 7.24% in experiment [5].
On to `NC(=O)[C@H]1CCS[C@@H]2C[C@]3(CCCN3C(=O)Cc3ccc(NC(=O)COc4ccc(Cl)cc4Cl)cc3)C(=O)N12`, for which the activity change, negative = inhibition was -8.85% in experiment [1]; -0.983% in experiment [2]; 7.25% in experiment [3]; -27.1% in experiment [4]; 1.02% in experiment [5].
For `CCc1ccc(CNC(=O)c2ncn3c2C(=O)N(C2CC2)C(C)(C(=O)NCc2ccccc2Cl)C3)cc1` (stereo not drawn), the activity change, negative = inhibition in experiment [1] was -3.81%; in experiment [2], 0.394%; in experiment [3], 1.56%; in experiment [4] it was -3.85%; in experiment [5] it was 0.814%.
Consider `CSc1ccc(CNC(=O)c2cc3n(n2)CC(C)(C(=O)NC2CCCCC2)N(C)C3=O)cc1` (stereo not drawn), for which the activity change, negative = inhibition in experiment [1] is -7.66%; in experiment [2], -1.5%; in experiment [3], -1.99%; in experiment [4], -8.26%; in experiment [5] it was -4.65%.
As to `C(#Cc1nc2ncccc2nc1OCCN1CCCC1)c1ccccc1`, the activity change, negative = inhibition in experiment [1] was -2.71%; in experiment [2] it was -4.02%; in experiment [3], -7.21%; in experiment [4], -12.1%; in experiment [5], 0.187%.
Regarding `c1ccc(C2=NOC3(CCCN(CC4CCCC4)C3)C2)cc1` (stereo not drawn), the activity change, negative = inhibition in experiment [1] is -7.3%; in experiment [2], -13.9%; in experiment [3] it was -14.6%; in experiment [4], -19.6%; in experiment [5] it was -16.9%.
As to `COCCNC(=O)CN1C(=O)NC(c2cccs2)C2=C1COC2=O` (stereo not drawn), the activity change, negative = inhibition in experiment [1] was -4.87%; in experiment [2] it was -4.91%; in experiment [3], -2.25%; in experiment [4], -8.22%; in experiment [5], -5.58%.
The matching figures for `C/C=C(\C)C(=O)OCC1OC(OCC2OC(OC3(CO)OC(CO)C(O)C3O)C(O)C(O)C2O)C(O)C(O)C1O` (stereo not drawn): 1.61%, 1.32%, 11.4%, -11.1% and -8.16%.
`CC1CCCN(C(=O)CN2CCCc3nc(-c4ccccc4)ncc3C2=O)C1` (stereo not drawn): the activity change, negative = inhibition was -10.5% in experiment [1]; -1.02% in experiment [2]; -0.154% in experiment [3]; -2.78% in experiment [4]; -6.03% in experiment [5].
The matching figures for `Cc1ccc(CN2C(=O)c3ccc(-c4ccco4)n3CC2(C)C(=O)NC2CCCCC2C)cc1` (stereo not drawn): -2.56%, 0%, 3.81%, -0.007% and -2.56%.
As for `CC(C)c1cc(C2CCN(Cc3cn[nH]c3-c3ccccc3)CC2)[nH]n1`, the activity change, negative = inhibition in experiment [1] was -4.14%; in experiment [2], -2.71%; in experiment [3] it was -23.8%; in experiment [4], -13.1%; in experiment [5], -2.19%.
Turning to `CCN(c1cc(C#CCN2CCOCC2)cc(C(=O)NCc2c(C)cc(C)[nH]c2=O)c1C)C1CCC(N(C)CCOC)CC1` (stereo not drawn), the activity change, negative = inhibition in experiment [1] was 3.77%; in experiment [2] it was 5.26%; in experiment [3], 5.87%; in experiment [4], -5.61%; in experiment [5] it was 6.23%.
`CC(C)C1c2cccn2CCN1C(=O)Nc1ccccc1Br` (stereo not drawn): the activity change, negative = inhibition in experiment [1] is 8.31%; in experiment [2], 1.26%; in experiment [3], -0.65%; in experiment [4], 1.5%; in experiment [5], 5.26%.
For the compound `O=c1cc(-c2cnccn2)oc2c(Nc3cccc(OC(F)(F)F)c3)nccc12`, the activity change, negative = inhibition in experiment [1] is -5.24%; in experiment [2], -4.29%; in experiment [3], -1.62%; in experiment [4] it was -12.3%; in experiment [5] it was 4.19%.
Take `CNCc1cn(C2CCN(Cc3c(OC)ccc(F)c3F)CC2)nn1`: the activity change, negative = inhibition is -3.35% in experiment [1]; 0.501% in experiment [2]; -5.16% in experiment [3]; -6.68% in experiment [4]; -5.65% in experiment [5].
Take `O=C(Cn1ccc2cc(S(=O)(=O)N3CCCCC3)ccc21)NCc1ccccn1`: the activity change, negative = inhibition was 7.49% in experiment [1]; 1.95% in experiment [2]; 7.13% in experiment [3]; 6.72% in experiment [4]; 5.02% in experiment [5].
As for `c1ccc(Nc2nc3c(s2)CCCc2[nH]ncc2-3)nc1`, the activity change, negative = inhibition in experiment [1] was -22.2%; in experiment [2], 2.67%; in experiment [3] it was -2.07%; in experiment [4], -14.6%; in experiment [5] it was -37.2%.
In the case of `COc1cncc(NC(=O)C2=NO[C@@H]3CN(Cc4ccccc4)C[C@H]23)c1`, the activity change, negative = inhibition in experiment [1] was -7.27%; in experiment [2], -1.28%; in experiment [3] it was 0.135%; in experiment [4], -3.77%; in experiment [5] it was 5.35%.
The matching figures for `CN1C(=O)c2cc(C(=O)NC3CCCC3)nn2CC1(C)C(=O)NCc1ccc(F)cc1` (stereo not drawn): 5.36%, 0.542%, 5.62%, 7.19% and 2.63%.
With `CCc1cc(C(N)=O)ccc1-n1nc(C(C)C)c2c(-n3cnc(-c4cnn(C)c4)c3)ccnc21`, the activity change, negative = inhibition in experiment [1] is -0.314%; in experiment [2], 4.73%; in experiment [3] it was 3.27%; in experiment [4] it was -19.2%; in experiment [5], -2.57%.
As to `CCCC1c2ccc(C)n2CCN1C(=O)Nc1ccccc1C(F)(F)F` (stereo not drawn), the activity change, negative = inhibition in experiment [1] is -7.56%; in experiment [2] it was 2.34%; in experiment [3], -13.2%; in experiment [4], 1.91%; in experiment [5] it was -4.37%.
On to `CCCn1c(=O)c2cc(F)ccc2n2c(SCC(=O)Nc3ccc(OC)c(OC)c3)nnc12`, for which the activity change, negative = inhibition in experiment [1] worked out at 9.93%; in experiment [2] it was 1.16%; in experiment [3], 11.7%; in experiment [4] it was 1.08%; in experiment [5] it was 9.58%.
Consider `CC[C@@H]([C@H](C)O)n1ncn(-c2ccc(N3CCN(c4ccc(OC[C@@H]5CO[C@@](Cn6cncn6)(c6ccc(F)cc6F)C5)cc4)CC3)cc2)c1=O`, for which the activity change, negative = inhibition in experiment [2] was -3.21%; in experiment [4], -25.4%; in experiment [5] it was -0.242%.
Regarding `CCCn1c(=O)c2ccc(C(=O)NC3CCCCC3)cc2n2c(=O)n(CC(N)=O)nc12`, the activity change, negative = inhibition in experiment [1] was 5.43%; in experiment [2] it was 2.49%; in experiment [3], 7.87%; in experiment [4], 6.82%; in experiment [5], 4.75%.
For the compound `CC1(C)CC[C@]2(C(=O)O[C@@H]3O[C@H](CO[C@@H]4O[C@H](CO)[C@@H](O)[C@H](O)[C@H]4O[C@@H]4O[C@H](CO)[C@@H](O)[C@H](O)[C@H]4O)[C@@H](O)[C@H](O[C@@H]4O[C@H](CO)[C@@H](O)[C@H](O)[C@H]4O)[C@H]3O)CC[C@]3(C)C(=CCC4[C@@]5(C)CC[C@@H](O)[C@@](C)(C(=O)O[C@@H]6O[C@H](CO)[C@@H](O)[C@H](O)[C@H]6O)C5CC[C@]43C)[C@@H]2C1` (stereo partly drawn), the activity change, negative = inhibition in experiment [1] was 3.79%; in experiment [2], 1.4%; in experiment [3], 9.51%; in experiment [4] it was -11.9%; in experiment [5], 1.29%.
For `CC(C)CCNC(=O)C1c2c(n(C)c3ccccc23)SCC(=O)N1c1cc(F)ccc1F` (stereo not drawn), the activity change, negative = inhibition in experiment [1] was 2.8%; in experiment [2], -1.24%; in experiment [3], -1.64%; in experiment [4], -4.18%; in experiment [5], -1.24%.
Consider `Cc1cccc(C(=O)N2CCC(c3nc(-c4cccn4C)no3)C2)c1` (stereo not drawn), for which the activity change, negative = inhibition in experiment [1] is -2.8%; in experiment [2] it was -0.905%; in experiment [3], -0.71%; in experiment [4], -10.3%; in experiment [5] it was -3.79%.
Turning to `CC(C)Cn1c(=O)c2ccccc2n2c(CCC(=O)NCc3ccc(F)cc3)nnc12`, the activity change, negative = inhibition in experiment [1] is 2.03%; in experiment [2], -4.65%; in experiment [3], 0.456%; in experiment [4], 3.65%; in experiment [5], -8.41%.
For the compound `CC(=O)OC[C@@]12[C@H](O)C[C@@H](C)[C@]3(C[C@@H](c4ccoc4)OC3=O)[C@H]1C[C@H](O)C[C@]21CO1`, the activity change, negative = inhibition in experiment [1] is 0%; in experiment [2], 0.583%; in experiment [3], 1.94%; in experiment [4], -10.5%; in experiment [5], 3.55%.
On to `Nc1ncnc2c1ncn2[C@H]1CCCO1`, for which the activity change, negative = inhibition in experiment [1] was -7.83%; in experiment [2] it was 6.79%; in experiment [3] it was -1.75%; in experiment [4], -13.3%; in experiment [5], 0.206%.
For `CCOc1ccc(CN2C(=O)c3cc4sccc4n3CC2(C)C(=O)NC2CCCCCC2)cc1` (stereo not drawn), the activity change, negative = inhibition in experiment [1] was 5.65%; in experiment [2], 0.308%; in experiment [3], 8.85%; in experiment [4], 8.53%; in experiment [5], 4.2%.
With `CC(=O)Nc1c2n(c3ccc(F)cc13)CC(C)(C(=O)NC1CCCC1)N(CC1CCCO1)C2=O` (stereo not drawn), the activity change, negative = inhibition in experiment [1] is -2.09%; in experiment [2], 3.79%; in experiment [3], -0.673%; in experiment [4] it was 2.3%; in experiment [5], -3.44%.
Take `O=C(O)CCC(=O)N1Cc2[nH]cnc2C[C@H]1c1nc(-c2ccc(OC(F)(F)F)cc2)no1`: the activity change, negative = inhibition in experiment [1] is -7.7%; in experiment [2], -6.45%; in experiment [3], -1.39%; in experiment [4], -13.3%; in experiment [5], 4.16%.
With `O=C(O)c1ccc(C2CCCN(C(=O)c3cccc(N4CCOCC4)c3)C2)cc1` (stereo not drawn), the activity change, negative = inhibition is -5.14% in experiment [1]; -9.76% in experiment [2]; -3.25% in experiment [3]; -15.4% in experiment [4]; 6.6% in experiment [5].
Take `COCCNC(=O)c1ccc2oc(-c3ccncc3Cl)nc2c1`: the activity change, negative = inhibition in experiment [1] was -14.4%; in experiment [2], -14.8%; in experiment [3], -12.4%; in experiment [4], -19.4%; in experiment [5], -13%.
For the compound `CCc1cc(CN2CC(C(=O)O)C2)sc1-c1noc(-c2ccc(Oc3ccccc3)cc2)n1`, the activity change, negative = inhibition in experiment [1] is -3.14%; in experiment [2], 1.61%; in experiment [3], 4.81%; in experiment [4], -8.79%; in experiment [5], 1.37%.
